Data on 28 molecules can be found in the antibiotic and cytotoxicity screens of Wong et al. (2023).

The subject of assay [1] is HSkMC (human skeletal muscle cells). Briefly: cytotoxicity call (relative viability < 0.9). Particulars: 10 µM.
Assay [2] deals with HepG2. Briefly: cytotoxicity call (relative viability < 0.9). The conditions noted are these: 10 µM.
In assay [3] the test system is S. aureus RN4220. Briefly: growth inhibition call (relative growth <= 0.2). The conditions noted are these: 50 µM.

Structures are written as SMILES. Some of the results follow.

With `COCC(=O)N1C[C@H](C)[C@@H](OC)CN(C)C(=O)c2cc(NC(=O)c3ccc(OC)cc3)ccc2OC[C@H]1C`, the cytotoxicity call in assay [1] and in assay [2] was “inactive” in each case. In assay [3], the growth inhibition call is “inactive”.

For the molecule `C[C@@H]1CN([C@H](C)CO)C(=O)c2cc(NC(=O)Nc3ccccc3)ccc2O[C@@H](C)CCCCO[C@H]1CN(C)C(=O)C1CCCCC1`, the cytotoxicity call in assay [1] and in assay [2] was “inactive” each time. Also, the growth inhibition call in assay [3] is “inactive”.

`C[C@@H]1CN([C@@H](C)CO)C(=O)c2cc(NC(=O)Nc3ccc4c(c3)OCO4)ccc2O[C@@H](C)CCCCO[C@@H]1CN(C)S(=O)(=O)c1ccc(F)cc1`: the cytotoxicity call in assay [1] and in assay [2] was “inactive” throughout. Besides, the growth inhibition call in assay [3] was “inactive”.

Turning to `C[C@@H]1CN([C@H](C)CO)C(=O)c2cc(NS(=O)(=O)c3cccs3)ccc2O[C@@H](C)CCCCO[C@@H]1CN(C)C(=O)NC1CCCCC1`, the cytotoxicity call in assay [1] is “inactive”. In addition, in assay [2], the cytotoxicity call is “active”. Further, the growth inhibition call in assay [3] is “inactive”.

`CC[C@H](C)[C@H](N)C1=N[C@H](C(=O)N[C@@H](CC(C)C)C(=O)N[C@@H]2CCC(=O)[O][Zn][O]C(=O)C[C@H]3NC(=O)[C@H](Cc4c[nH]cn4)NC(=O)[C@@H](Cc4ccccc4)NC(=O)[C@H]([C@@H](C)CC)NC(=O)[C@@H](CCCN)NC(=O)[C@H](CCCCNC(=O)[C@H](CC(N)=O)NC3=O)NC(=O)[C@H]([C@@H](C)CC)NC2=O)CS1`: the cytotoxicity call in assay [1] and in assay [2] was “inactive” throughout. In addition, the growth inhibition call in assay [3] is “active”.

Take `COc1ccc(NC(=O)N(C)C[C@@H]2OCCCC[C@H](C)Oc3ccc(NC(=O)c4ccccc4)cc3C(=O)N([C@@H](C)CO)C[C@@H]2C)cc1`: the cytotoxicity call in assay [1] and in assay [2] was “inactive” throughout. Further, the growth inhibition call in assay [3] was “inactive”.

Regarding `COCC(=O)N1C[C@@H](C)[C@H](OC)CN(C)C(=O)c2ccc(NC(=O)c3ccc(F)cc3)cc2OC[C@@H]1C`, the cytotoxicity call in assay [1] and in assay [2] was “inactive” throughout. The growth inhibition call in assay [3] was “inactive”.

As to `C[C@@H]1CN([C@@H](C)CO)C(=O)Cc2cc(NC(=O)Nc3ccc(C(F)(F)F)cc3)ccc2O[C@H]1CN(C)Cc1ccc2c(c1)OCO2`, the cytotoxicity call in assay [1] was “inactive”. Further, the cytotoxicity call in assay [2] was “active”. Besides, the growth inhibition call in assay [3] was “inactive”.

Consider `O=C(NCCN1CCOCC1)c1ccccn1`, for which the cytotoxicity call in assay [1] and in assay [2] was “inactive” in each case. For the same molecule, the growth inhibition call in assay [3] is “inactive”.

On to `CCN1CCN(C2=C(NS(=O)(=O)c3ccc(Br)cc3)C(=O)c3ccccc3C2=O)CC1`, for which the cytotoxicity call in assay [1] is “inactive”. Moreover, the cytotoxicity call in assay [2] is “active”. For the same molecule, the growth inhibition call in assay [3] is “inactive”.

As for `C[C@@H]1CN([C@H](C)CO)C(=O)Cc2cc(NC(=O)CCCN(C)C)ccc2O[C@H]1CN(C)C(=O)Nc1ccc2c(c1)OCO2`, the cytotoxicity call in assay [1] and in assay [2] was “inactive” each time. Also, the growth inhibition call in assay [3] was “inactive”.

`C[C@H](CO)N1C[C@H](C)[C@@H](CN(C)C(=O)NC2CCCCC2)OCCCC[C@H](C)Oc2ccc(NC(=O)Nc3cccc4ccccc34)cc2C1=O`: the cytotoxicity call in assay [1] and in assay [2] was “inactive” in each case. Further, the growth inhibition call in assay [3] is “inactive”.

Take `COCC(=O)N(C)C[C@@H]1Oc2cc(C#CCC3CCCC3)ccc2S(=O)(=O)N([C@H](C)CO)C[C@H]1C`: the cytotoxicity call in assay [1] and in assay [2] was “inactive” in each case. Moreover, the growth inhibition call in assay [3] is “inactive”.

For `O=C1c2c(O)ccc(O)c2C(=O)c2c(NCCNCCO)ccc(NCCNCCO)c21`, the cytotoxicity call in assay [1] and in assay [2] was “active” in each case. In addition, the growth inhibition call in assay [3] was “inactive”.

Consider `O=C(N[C@H]1CC[C@@H](CCn2cc(C3(O)CCCC3)nn2)O[C@@H]1CO)C1CCOCC1`, for which the cytotoxicity call in assay [1] and in assay [2] was “inactive” each time. The growth inhibition call in assay [3] is “inactive”.

Turning to `C[C@@H]1CN([C@@H](C)CO)C(=O)c2cc(NC(=O)Nc3ccc(C(F)(F)F)cc3)ccc2O[C@H]1CN(C)Cc1ccc2c(c1)OCO2`, the cytotoxicity call in assay [1] and in assay [2] was “active” throughout. The growth inhibition call in assay [3] is “inactive”.

Turning to `C[C@@H]1CCCCO[C@@H](CN(C)C(=O)c2ccccc2)[C@H](C)CN([C@@H](C)CO)C(=O)c2cc(NC(=O)c3ccccc3)ccc2O1`, the cytotoxicity call in assay [1] and in assay [2] was “inactive” in each case. The growth inhibition call in assay [3] is “inactive”.

Turning to `CCCCCCCCCCCCC[N+](C)(C)Cc1ccccc1`, in assay [1], the cytotoxicity call was “inactive”. In addition, the cytotoxicity call in assay [2] was “active”. Further, in assay [3], the growth inhibition call is “active”.

With `C[C@@H]1CN([C@@H](C)CO)C(=O)c2cc(Br)cnc2O[C@H]1CN(C)C(=O)Nc1ccc(F)cc1`, the cytotoxicity call in assay [1] and in assay [2] was “inactive” each time. Besides, in assay [3], the growth inhibition call is “inactive”.

Take `C[C@@H]1CN([C@@H](C)CO)C(=O)c2cccc(NS(=O)(=O)c3ccc(F)cc3)c2O[C@@H]1CN(C)S(C)(=O)=O`: the cytotoxicity call in assay [1] and in assay [2] was “inactive” throughout. Moreover, the growth inhibition call in assay [3] was “inactive”.

Regarding `Cc1ccc(S(=O)(=O)Nc2ccc3c(c2)C(=O)N([C@H](C)CO)C[C@@H](C)[C@@H](CN(C)S(=O)(=O)c2ccc(F)cc2)OCCCC[C@H](C)O3)cc1`, the cytotoxicity call in assay [1] and in assay [2] was “inactive” throughout. Also, in assay [3], the growth inhibition call was “inactive”.

On to `CC(C)NC(=O)Nc1ccc2c(c1)CC(=O)N([C@H](C)CO)C[C@@H](C)[C@@H](CN(C)Cc1ccc(C(=O)O)cc1)O2`, for which the cytotoxicity call in assay [1] and in assay [2] was “inactive” each time. For the same molecule, the growth inhibition call in assay [3] was “inactive”.

Regarding `C[C@@H]1CN([C@@H](C)CO)C(=O)Cc2cc(NC(=O)CCN3CCOCC3)ccc2O[C@H]1CN(C)S(C)(=O)=O`, the cytotoxicity call in assay [1] and in assay [2] was “inactive” in each case. Moreover, in assay [3], the growth inhibition call was “inactive”.

Take `C[C@H](CO)N1C[C@H](C)[C@H](CN(C)Cc2ccc(Oc3ccccc3)cc2)Oc2c(NC(=O)C3CC3)cccc2C1=O`: the cytotoxicity call in assay [1] and in assay [2] was “inactive” in each case. The growth inhibition call in assay [3] was “inactive”.

In the case of `CN1C(=O)[C@H]2[C@H](C1=O)[C@H]1C=C(CCCO)[C@@H]2[C@H](c2ccc(CN3CCCC3)cc2)N1Cc1sc2ccccc2c1Cl`, the cytotoxicity call in assay [1] and in assay [2] was “inactive” throughout. The growth inhibition call in assay [3] was “inactive”.

Take `CN(CP(=O)(O)CN1CCOCC1)S(C)(=O)=O`: the cytotoxicity call in assay [1] and in assay [2] was “inactive” each time. Further, in assay [3], the growth inhibition call was “inactive”.

For the molecule `C[C@H](NC(=O)N(C)C[C@@H]1OCc2ccccc2-c2ccccc2C(=O)N([C@@H](C)CO)C[C@H]1C)c1ccccc1`, the cytotoxicity call in assay [1] and in assay [2] was “inactive” throughout. In addition, the growth inhibition call in assay [3] is “inactive”.

`C[C@H]1CN([C@@H](C)CO)S(=O)(=O)c2ccc(-c3ccncc3)cc2O[C@@H]1CN(C)C(=O)c1cccc(F)c1`: the cytotoxicity call in assay [1] and in assay [2] was “inactive” each time. Further, the growth inhibition call in assay [3] is “inactive”.
